Assay results: the supplement of paper PMC7826260
This is one part of the list. Viral Rep nickase domains cut single-stranded DNA in vitro for 1 h at 37 °C with 3 µM enzyme; only the middle of the 90-letter strands is printed. Numbers give uncut DNA relative to the enzyme-free pool, as log2; the lower, the more was cut; hits are not called. Shares of all reads are compared; where an enzyme cuts many sequences, the uncut ones exceed 0.

Experiments:
Experiment in all cases: uncleaved DNA left, log2 of reads against the no-enzyme library (log2 ratio); higher = less cleavage (more negative = more Rep cleavage of the k-mer); sequences stand for … in CTCGTCCG…ACCGGAGA
[1] = system: T1, Rep nickase domain of Muscovy duck circovirus
T1 sequence (residues 1-111 of Rep, tag left off): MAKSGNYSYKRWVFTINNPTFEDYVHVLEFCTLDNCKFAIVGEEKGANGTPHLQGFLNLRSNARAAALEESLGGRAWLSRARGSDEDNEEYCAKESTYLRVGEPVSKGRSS
Procedure: (§1)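 A pool of 90-nt single-stranded DNAs with seven random bases just before the constant AC of the nick site (name = the seven bases) was cut by 3 µM recombinant His6-SUMO-tagged Rep nickase domain (300 nM DNA, 50 mM HEPES pH 8.0, 50 mM NaCl, 1 mM MnCl2, 1 h, 37 °C, three replicates). Uncut DNA was amplified and sequenced.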

[2] = system: T2, Rep nickase domain of banana bunchy top virus
T2 sequence (residues 1-94 of Rep, tag left off): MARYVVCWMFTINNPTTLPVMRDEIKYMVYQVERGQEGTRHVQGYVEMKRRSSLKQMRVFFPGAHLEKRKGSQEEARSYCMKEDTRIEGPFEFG
Procedure: as §1

[3] = system: T3, Rep nickase domain of cabbage leaf curl virus
T3 sequence (residues 1-116 of Rep, tag left off): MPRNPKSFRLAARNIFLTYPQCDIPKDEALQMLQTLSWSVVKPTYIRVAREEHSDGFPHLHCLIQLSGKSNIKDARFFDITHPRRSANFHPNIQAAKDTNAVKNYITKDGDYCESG
Procedure: as §1

[4] = system: T4, Rep nickase domain of chickpea chlorotic dwarf virus
T4 sequence (residues 1-124 of Rep, tag left off): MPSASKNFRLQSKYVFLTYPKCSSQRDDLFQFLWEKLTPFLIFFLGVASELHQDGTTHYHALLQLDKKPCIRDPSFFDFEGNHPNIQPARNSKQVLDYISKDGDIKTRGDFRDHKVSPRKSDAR
Procedure: as §1

[5] = system: T5, Rep nickase domain of faba bean necrotic yellows virus
T5 sequence (residues 1-98 of Rep, tag left off): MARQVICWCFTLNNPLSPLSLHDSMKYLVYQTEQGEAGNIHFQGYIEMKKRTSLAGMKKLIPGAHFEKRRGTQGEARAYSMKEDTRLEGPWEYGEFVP
Procedure: as §1

[6] = system: T6, Rep nickase domain of maize striate mosaic virus
T6 sequence (residues 1-117 of Rep, tag left off): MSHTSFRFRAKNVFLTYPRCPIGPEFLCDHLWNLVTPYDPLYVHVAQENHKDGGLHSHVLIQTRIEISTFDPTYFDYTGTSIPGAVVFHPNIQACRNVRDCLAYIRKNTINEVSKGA
Procedure: as §1

[7] = system: T7, Rep nickase domain of porcine circovirus 2
T7 sequence (residues 2-116 of Rep, tag left off): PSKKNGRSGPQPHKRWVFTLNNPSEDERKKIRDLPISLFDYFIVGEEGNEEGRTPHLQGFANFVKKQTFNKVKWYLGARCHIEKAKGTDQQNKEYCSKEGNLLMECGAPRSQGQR
Procedure: as §1

[8] = system: T8, Rep nickase domain of tomato golden mosaic virus
T8 sequence (residues 1-124 of Rep, tag left off): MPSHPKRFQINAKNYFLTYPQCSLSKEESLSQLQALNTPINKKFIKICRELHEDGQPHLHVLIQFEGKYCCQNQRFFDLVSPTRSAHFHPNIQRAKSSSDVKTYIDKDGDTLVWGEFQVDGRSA
Procedure: as §1

[9] = system: T9, Rep nickase domain of tomato yellow leaf curl virus
T9 sequence (residues 1-136 of Rep, tag left off): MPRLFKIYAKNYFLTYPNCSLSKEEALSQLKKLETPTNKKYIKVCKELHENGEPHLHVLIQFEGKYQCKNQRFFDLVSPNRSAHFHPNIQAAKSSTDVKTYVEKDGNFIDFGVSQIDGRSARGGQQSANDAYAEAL
Procedure: as §1

[10] = system: T10, Rep nickase domain of wheat dwarf virus
T10 sequence (residues 1-137 of Rep, tag left off): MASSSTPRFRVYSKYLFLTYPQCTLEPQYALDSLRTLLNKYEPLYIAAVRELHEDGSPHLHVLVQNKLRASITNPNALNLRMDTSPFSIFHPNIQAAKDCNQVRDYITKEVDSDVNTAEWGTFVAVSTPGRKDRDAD
Procedure: as §1

Sequence	uncleaved DNA left (log2) [1]	uncleaved DNA left (log2) [2]	uncleaved DNA left (log2) [3]	uncleaved DNA left (log2) [4]	uncleaved DNA left (log2) [5]	uncleaved DNA left (log2) [6]	uncleaved DNA left (log2) [7]	uncleaved DNA left (log2) [8]	uncleaved DNA left (log2) [9]	uncleaved DNA left (log2) [10]
AAAAGGA	-0.00296	-0.00155	0.203	0.499	0.0541	-0.0737	0.131	0.0802	-0.114	0.00392
CGCCCCA	-0.144	-0.0948	0.126	-0.51	-0.13	-0.109	-0.318	-0.0979	-0.0542	-0.079
ACGTGGC	-0.0245	-0.118	-0.513	-0.589	0.0233	-1.26	0.0663	-0.0158	-0.0605	-0.171
AGTCTTC	0.0204	-0.0945	0.0876	0.199	0.00151	-0.293	-0.493	-0.0175	-0.00117	-0.00551
GGGACCC	-0.0869	0.0829	0.782	1.99	-0.157	2.16	0.0909	-0.0681	-0.0993	0.126
ACTATTC	0.00565	0.00393	-0.255	-0.187	-0.0153	-0.969	0.054	0.0684	-0.0855	-0.0551
AGTGTAC	0.0802	-0.0306	0.0871	0.239	-0.167	0.5	0.00191	-0.028	-0.0162	-0.0542
GGGTTCC	0.0418	0.15	0.722	1.5	-0.0453	2.03	0.162	0.0246	0.147	0.119
ACATACT	-3.29	-0.203	-0.873	-2.97	0.0798	-0.982	-3.67	-0.0575	-0.0585	-0.159
CCTCAAC	-0.0757	-0.18	-0.183	-1.56	0.0248	-0.751	-0.00775	-0.00217	-0.0174	-0.152
TTAAGCA	0.0869	0.059	-0.527	-2.04	0.00386	-1.1	-0.157	-0.0322	0.0463	-0.0208
GATCTTA	0.0315	0.17	0.348	0.301	0.0661	1.17	0.0616	0.051	0.141	0.152
CAATATT	-4.28	-4.25	-5.41	-4.39	-3.73	-4.11	-4.43	-4.73	-3.58	-4.8
CAGTTAG	0.067	0.0153	-0.719	0.0605	0.153	-0.943	0.0634	0.127	0.136	-0.0507
ACTTACG	-0.0509	0.0699	-0.723	0.218	-0.0377	-0.598	0.0452	-0.114	0.0148	-0.0698
GACAAAA	-0.0143	0.0692	0.317	0.705	-0.0316	0.435	0.105	0.0187	0.0791	0.0995
GTGCCTC	-0.135	0.0925	0.221	0.836	-0.0715	1.75	0.0498	0.0799	-0.0393	-0.0473
GGCGTGC	0.0254	0.0318	0.147	0.618	-0.0842	0.542	0.00716	-0.00608	-0.113	-0.054
GCACCGT	-0.178	-0.0505	-0.29	-0.275	-0.0618	-0.483	-0.0493	-0.0613	-0.0876	-0.0449
TTGGTGT	0.124	-0.144	-0.263	-0.469	0.0196	-0.812	0.012	-0.0596	-0.0816	-0.0705

Sequence	uncleaved DNA left (log2) [1]	uncleaved DNA left (log2) [2]	uncleaved DNA left (log2) [3]	uncleaved DNA left (log2) [4]	uncleaved DNA left (log2) [5]	uncleaved DNA left (log2) [6]	uncleaved DNA left (log2) [7]	uncleaved DNA left (log2) [8]	uncleaved DNA left (log2) [9]	uncleaved DNA left (log2) [10]
ATACACT	-0.027	-0.0923	-1.01	-2.97	-0.056	-0.889	-0.318	-0.126	-0.0852	-0.336
TTTTACC	-3.25	-0.275	-0.576	-2.43	-0.767	-0.121	-3.24	-0.134	0.1	-0.755
GGCAGGG	0.0447	0.0549	0.227	0.659	0.0737	0.613	0.154	0.0525	-0.013	0.101
GAGGTAT	0.0323	0.103	0.493	1.19	0.0156	1.81	-0.309	-0.00946	-0.0228	0.0948
ACCTTCG	0.0697	0.103	-0.365	1.11	0.0579	0.261	0.21	-0.0487	0.281	0.154
TACCCTG	-0.0208	-0.113	-0.0147	0.238	-0.0649	0.823	-0.639	-0.0701	-0.134	-0.047
GTCGTTC	0.0308	0.0635	0.384	0.776	0.000902	1.64	0.0685	0.0106	0.0806	0.09
GCGGATA	-0.0435	0.044	0.656	1.6	0.109	1.99	0.15	0.125	0.0428	0.106
ACGGCAA	0.127	0.141	0.0304	0.143	0.0117	-0.532	0.153	0.166	0.141	0.111
GAGGTCT	-0.0508	0.0158	0.595	-0.0619	0.0175	1.88	-0.943	0.0511	0.0165	0.0594
AGATGAA	-0.0153	-0.0491	0.278	0.734	0.00498	0.568	-0.104	0.0533	-0.075	0.031
TATACTG	0.00597	-0.0419	0.0352	0.354	0.04	1.09	0.0227	0.0109	-0.0941	-0.0576
GTACTAA	0.115	0.0459	0.399	0.902	0.0134	1.71	0.192	0.0357	0.0917	0.144
TCTCGTT	0.226	-0.01	0.0384	-1.29	0.205	-0.584	-0.41	0.0705	0.135	-0.0673
TGGCCAA	-0.0723	0.0779	0.453	0.889	-0.0653	0.865	0.0813	0.0258	0.126	0.165
GCACAAG	0.0836	-0.0133	-0.755	-0.401	0.0508	-0.921	0.15	0.166	-0.0049	0.012
TTCGGTA	0.123	0.102	0.144	0.0952	0.0573	0.491	-0.0665	0.0859	0.0701	0.0321
GTTCGAT	0.131	0.141	0.339	0.963	0.069	1.66	0.138	0.0959	0.145	0.122
GATGTGG	0.00674	-0.0993	-0.125	0.0166	-0.0377	-0.637	-0.00569	-0.0246	-0.0798	-0.0533
ACTACTC	0.000609	-0.0174	-0.0245	-0.462	-0.0417	-0.487	0.0213	-0.0252	-0.15	-0.0445

Sequence	uncleaved DNA left (log2) [1]	uncleaved DNA left (log2) [2]	uncleaved DNA left (log2) [3]	uncleaved DNA left (log2) [4]	uncleaved DNA left (log2) [5]	uncleaved DNA left (log2) [6]	uncleaved DNA left (log2) [7]	uncleaved DNA left (log2) [8]	uncleaved DNA left (log2) [9]	uncleaved DNA left (log2) [10]
ATTGCTA	-0.00183	-0.0185	-0.695	-0.87	0.0565	-1.03	-0.0279	0.00235	0.0922	0.0807
CCCCACA	-0.105	-0.0158	-0.0257	-1.43	-0.134	-0.603	-0.137	-0.0354	-0.17	-0.0348
AGCTCCG	-0.116	-0.0747	-0.549	-0.502	-0.122	-1.08	-0.0144	-0.0943	-0.198	-0.145
AGCTGCC	-0.0101	-0.015	0.244	0.766	-0.0275	0.553	0.214	-0.086	-0.0983	0.0701
TACGGTT	0.0187	-0.144	-1.66	-2.27	-0.0896	0.86	-0.343	-0.0415	-0.142	-0.287
TCTACAC	0.0684	0.0575	0.0964	-1.58	0.0289	-0.283	0.0476	0.0524	-0.0149	0.02
GAGTGCG	-0.0427	-0.0266	-0.528	0.708	-0.0195	-0.0208	0.104	-0.0921	-0.0363	-0.12
TTCAGGT	0.0363	0.0833	0.378	1.21	0.0906	1.83	0.0646	0.0616	-0.0308	0.0226
AGCTATC	-0.0836	-0.0407	0.153	0.547	-0.0541	0.0642	-0.165	-0.00157	0.0703	0.0241
CCATGGT	-0.403	-0.13	-0.293	-0.25	-0.0729	-0.505	-0.673	-0.0316	-0.00857	-0.149
CGTAGAA	-0.109	-0.224	-0.0127	-0.0832	0.00551	-0.571	-0.171	-0.0169	-0.205	-0.0441
TCAGTCC	0.00271	0.0764	0.304	-0.14	-0.0259	0.282	0.0295	0.0528	-0.0453	0.0438
AGGCCAA	0.0496	0.0108	0.574	0.894	-0.00862	1.06	0.00127	0.101	0.11	0.124
AATCGAG	-0.0867	0.0426	-0.182	-0.114	-0.0492	-0.925	-0.0288	-0.00198	-0.0675	-0.0695
GATGCTT	-0.105	-0.454	0.057	-0.915	-0.103	0.317	-0.43	0.00493	-0.0752	-0.238
GGCCGGT	0.133	0.0967	0.493	0.987	-0.00301	1.57	0.149	-0.0156	0.04	0.106
AGAAAAA	0.0264	0.0978	0.25	0.342	-0.00159	-0.231	0.18	0.0781	-0.045	0.242
ACCGCGA	0.154	0.0911	-0.157	0.818	0.177	0.228	0.222	0.0496	0.109	0.0333
TGTCCCA	-0.164	0.0468	0.242	0.00169	-0.108	0.544	-0.47	-0.024	0.0594	-0.0595
CTTAACT	0.133	0.0856	-0.417	-3.15	0.194	-0.716	-0.331	0.123	0.183	0.21
